# The least precise scores are not listed. The source holds two more conditions with little spread; they are left out. Read del as a deletion of the residues named and ins as an insertion between two positions. For some of these results: The concentration of ogerin is not given here.
# B1: GPR68, Q15743 (parent)
# chain: MGNITADNSSMSCTIDHTIHQTLAPVVYVTVLVVGFPANCLSLYFGYLQIKARNELGVYLCNLTVADLFYICSLPFWLQYVLQHDNWSHGDLSCQVCGILLYENIYISVGFLCCISVDRYLAVAHPFRFHQFRTLKAAVGVSVVIWAKELLTSIYFLMHEEVIEDENQHRVCFEHYPIQAWQRAINYYRFLVGFLFPICLLLASYQGILRAVRRSHGTQKSRKDQIQRLVLSTVVIFLACFLPYHVLLLVRSVWEASCDFAKGVFNAYHFSLLLTSFNCVADPVLYCFVSETTHRDLARLRGACLAFLTCSRTGRAREAYPLGAPEASGKSGAQGEEPELLTKLHPAFQTPNSPGSGGFPTGRLA
# Assays:
# [1] = variants of: B1; experiment: cAMP reporter score (Enrich2 score, wild type = 0); higher = more signal; HEK293T, FACS bins
# [2] = variants of: B1; experiment: surface expression score (Enrich2 score, wild type = 0); higher = more signal; HEK293T, FACS bins
Variant,cAMP reporter score ([1]; pH 5.5),"cAMP reporter score ([1]; pH 6, modulator: ogerin)","cAMP reporter score ([1]; pH 6.5, modulator: ogerin)",surface expression score [2],cAMP reporter score ([1]; pH 6)
C97A,-1.19,-0.922,-1.03,0.392,–
C97D,-1.97,–,-1.89,-1.5,–
C97E,-1.57,-1.63,-0.776,-1.59,-1.47
C97F,-0.776,-1.35,-1.5,0.935,-0.345
C97G,-0.515,-0.441,-0.654,0.603,-0.355
C97H,-1.42,-1.26,-1.28,1.95,-0.356
C97I,-0.958,-1.42,-0.569,0.474,-0.679
C97K,-0.623,-1.58,-0.52,-0.291,-0.458
C97L,-1.04,-1.43,-0.798,1.08,-0.896
C97N,-0.89,-1.34,-1.11,-0.426,-1.43
C97P,-1.72,-0.883,-0.379,0.683,-0.722
C97Q,-1.59,-1.98,-1.42,0.422,-1.54
C97R,-1.43,-1.88,-0.963,0.569,-0.408
C97S,-0.605,-1.01,-0.714,1.58,–
C97T,-0.329,-1.45,-0.679,1.24,-0.179
C97V,-0.287,-0.428,-0.755,2.59,-1.04
C97W,-1.54,-1.57,-1.53,1.36,-1.02
C97Y,-1.27,-1.61,-1.57,0.859,-0.855
C97_G98insG,-1.85,-2.37,-1.27,-2.13,-1.26
G98_I99del,-1.03,-1.96,-0.762,-2.32,-0.828
G98_I99insG,-0.189,-1.4,-0.711,-1.91,-2.73
G98_I99insGS,-1.28,-1.04,-1.68,-1.17,–

Variant,cAMP reporter score ([1]; pH 5.5),"cAMP reporter score ([1]; pH 6, modulator: ogerin)","cAMP reporter score ([1]; pH 6.5, modulator: ogerin)",surface expression score [2],cAMP reporter score ([1]; pH 6)
L100_L101del,-1.46,-1.2,-0.563,-2.78,-0.919
L100_L101insGSG,-3.4,-1.41,-1.09,-1.29,-0.532
L100del,-1.74,-1.4,-1.43,-2.51,-0.81
L101_E103del,-1.24,-2.78,-0.836,-1.52,–
Y102A,-0.917,-1.65,-0.877,0.623,-0.614
Y102C,-1.14,-0.668,0.837,–,–
Y102D,-0.906,-1.3,-0.738,-0.692,-0.103
Y102F,-1.07,-1.13,-0.647,1.28,–
Y102G,-1.31,–,–,-1.18,–
Y102H,-1.66,-0.374,-0.99,1.62,-0.064
Y102I,-1.28,-0.698,0.003,1.77,-0.31
Y102K,-1.79,-1.74,-1.51,2.11,-0.632
Y102L,-1.69,-0.924,-1.4,-0.293,-1.64
Y102M,-1.47,-1.63,-1.79,-0.109,-1.22
Y102N,-1.51,-2.4,-1.17,1.75,–
Y102P,-1.77,-3.27,-2.83,-0.151,–
Y102Q,-1.58,-1.39,–,2.48,–
Y102R,-2.02,-1.49,-1.25,0.606,-1.31
Y102S,-0.561,-1.05,-1.36,1.55,-0.516
Y102V,-0.754,-1.99,-0.736,-0.047,–
Y102_E103insG,-1.44,-1.74,-2.27,–,-2.41
Y102_E103insGS,-0.64,-2.83,–,-2.59,-1.9

Variant,cAMP reporter score ([1]; pH 5.5),"cAMP reporter score ([1]; pH 6, modulator: ogerin)","cAMP reporter score ([1]; pH 6.5, modulator: ogerin)",surface expression score [2],cAMP reporter score ([1]; pH 6)
Y102_N104del,-1.24,-1.65,-1.22,-2.2,-0.654
E103C,-0.011,–,-1.14,0.72,–
E103D,-0.254,-0.381,-0.847,-1,-0.224
E103F,-1.3,-1.09,-1.06,1.6,-1.2
E103G,-1.4,-1.53,-1.56,0.184,-0.999
E103H,0.031,1.44,3.75,0.414,–
E103I,-0.307,-0.987,-1.2,1.39,-0.472
E103K,0.132,-1.21,-0.786,1.71,-0.767
E103L,-1.03,-0.609,-1.66,1.5,0.115
E103M,-1.2,-1.4,-1.8,1.14,-0.963
E103N,1.24,1.03,2.41,1.39,2.71
E103P,-0.078,-0.767,–,-1.39,–
E103Q,-0.082,-0.119,3.32,–,–
E103S,-0.974,-1.32,-1.27,0.73,-1.04
E103T,-0.171,-1.46,0.406,2.47,-0.275
E103V,-1.04,-0.377,-1.27,3.7,-1.33
E103W,-1.42,-1.13,-1.69,1.07,-0.781
E103Y,-1.43,-1.31,-1.19,0.343,0.181
E103_N104insGS,0.027,–,-0.189,-1.95,–
E103_N104insGSG,0.201,-1.36,-0.728,–,–
E103del,-0.39,-0.448,-0.643,-2.19,0.214
